Results published in publication PMC7442609 (ACS chemical biology, 2020).
Peptide text beside a SMILES is read from it. * marks the point of attachment. Cbz = O=C(OCc1ccccc1)*

System: RAW 264.7 cells
Assay: Mtphagy dye / lysotracker mitophagy assay
Settings: 5 μM, 16 hr

| Molecule | mitophagy (percent mitochondria positive lysosomes) compared to DMSO |
| --- | --- |
| CO[C@H]1C[C@@H]2CC[C@@H](C)[C@@](O)(O2)C(=O)C(=O)N2CCCC[C@H]2C(=O)O[C@H]([C@H](C)C[C@@H]2CC[C@@H](O)[C@H](OC)C2)CC(=O)[C@H](C)/C=C(\C)[C@@H](O)[C@@H](OC)C(=O)[C@H](C)C[C@H](C)/C=C/C=C/C=C/1C [RAPA, rapamycin] | significant increases |
| CC(C)C[C@@H](C=O)NC(=O)[C@H](CC(C)C)NC(=O)[C@H](CC(C)C)NC(=O)OCc1ccccc1 [MG-132] (Cbz-Leu-Leu-Leu-aldehyde) | little to no effect |
| N#CC(C#N)=NNc1cccc(Cl)c1 [CCCP, Carbonyl cyanide m-chlorophenylhydrazone] | significant increases |
| NNC(=O)c1ccncc1 [isoniazid] | little to no effect |

Biological target: T1, proteasomes (Mus musculus, UniProt O55234+P70195+Q60692)
T1 sequence (O55234 60-264): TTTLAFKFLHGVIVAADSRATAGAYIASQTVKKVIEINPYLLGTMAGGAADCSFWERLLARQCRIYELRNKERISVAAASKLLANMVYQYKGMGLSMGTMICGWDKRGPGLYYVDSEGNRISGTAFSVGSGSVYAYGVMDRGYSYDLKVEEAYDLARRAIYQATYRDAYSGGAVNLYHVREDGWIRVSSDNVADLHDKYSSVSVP
T1 sequence (Q60692 1-238): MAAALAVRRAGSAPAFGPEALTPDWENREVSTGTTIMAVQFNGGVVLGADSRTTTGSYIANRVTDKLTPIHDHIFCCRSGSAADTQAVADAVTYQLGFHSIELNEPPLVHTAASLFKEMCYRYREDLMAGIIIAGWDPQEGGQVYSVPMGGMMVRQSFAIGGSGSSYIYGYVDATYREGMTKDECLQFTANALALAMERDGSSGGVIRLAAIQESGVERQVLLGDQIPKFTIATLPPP
T1 sequence (P70195 44-277): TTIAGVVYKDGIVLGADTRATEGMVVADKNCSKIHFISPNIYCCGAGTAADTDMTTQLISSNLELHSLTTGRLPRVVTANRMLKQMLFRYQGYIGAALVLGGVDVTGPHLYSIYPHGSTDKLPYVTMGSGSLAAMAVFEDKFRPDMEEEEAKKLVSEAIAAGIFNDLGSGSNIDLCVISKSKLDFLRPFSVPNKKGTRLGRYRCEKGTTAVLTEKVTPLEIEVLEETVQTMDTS
Assay: Ub-R-GFP reporter assay of proteasomal activity in cells
Assay type: cell-based, murine
Settings: RAW 264.7 cells, 16 hours

| Molecule | proteasome inhibition in cellular Ub-R-GFP assay (in words) |
| --- | --- |
| C=C(NC(=O)C(=C)NC(=O)c1ccc2c(n1)-c1coc(n1)C(=C)NC(=O)C(=C)NC(=O)c1nc(oc1C)C(=C)NC(=O)C(C(C)(C)O)NC(=O)C(=C)NC(=O)c1nc(oc1C)/C(=C/C)NC(=O)C(C(C)O)NC(=O)c1csc-2n1)C(N)=O (stereo not drawn) [BER, berninamycin] | no detectable activity |
| thiocillin III [TCIII] | no detectable activity |

System: RAW 264.7 cells
Assay: CellTiter Glo cell viability
Assay type: cell-based
Settings: not given

| Molecule | cytotoxicity (CellTiter Glo) |
| --- | --- |
| C=C(NC(=O)c1csc(-c2nc3c(cc2O)-c2nc(cs2)C(=O)NC(C(C)O)C(=O)N/C(=C\C)c2nc(cs2)C(=O)NC2CC(O)C(=O)OCc4cccc5[nH]c(c(C)c45)C(=O)SCC(NC(=O)c4csc2n4)c2nc-3cs2)n1)C(N)=O (stereo not drawn) [NOS, nosiheptide] | Neither GE nor NOS, both of which exhibited anti-proteasome activity, proved cytotoxic |
| C=C(NC(=O)C(=C)NC(=O)c1csc(-c2ccc3c(n2)-c2csc(n2)-c2csc(n2)C2C(C)CC(O)N2C(=O)C(Cc2ccc(O)cc2)N=C(O)C2CSC(=N2)C(Cc2ccccc2)N=C(O)c2csc(n2)C(CC(N)=O)N=C(O)c2nc-3oc2C)n1)C(=O)O (stereo not drawn) [GE, GE37468] | Neither GE nor NOS, both of which exhibited anti-proteasome activity, proved cytotoxic |
| C=C(NC(=O)C(=C)NC(=O)c1csc(C2=N[C@@H]3c4csc(n4)[C@H]4NC(=O)c5csc(n5)[C@H]([C@](C)(O)[C@@H](C)O)NC(=O)[C@H]5CSC(=N5)/C(=C/C)NC(=O)[C@H]([C@@H](C)O)NC(=O)c5csc(n5)[C@]3(CC2)NC(=O)[C@H](C)NC(=O)C(=C)NC(=O)[C@H](C)NC(=O)[C@H]([C@@H](C)CC)N[C@@H]2C=Cc3c([C@H](C)O)cc(nc3[C@H]2O)C(=O)O[C@@H]4C)n1)C(N)=O [TSR, thiostrepton] | displayed cytotoxicity |
